Experimental data: the supplement of paper PMC4604168 (melanoma cell lines)
Some of the results follow. Repeats are few or missing, and single values can be far off.

These compounds were tested on MEL-HO (assay: cell count relative to DMSO control; melanoma cells; higher = more viable cells). Details: library dose: low library concentration; 72 h.
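Note: cell number obtained by counting DAPI-stained nuclei in high-throughput microscope images with image analysis software, screen run in 1,536-well plates.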

How did the cell count turn out when `CS(=O)(=O)CCNCc1ccc(-c2ccc3ncnc(Nc4ccc(OCc5cccc(F)c5)c(Cl)c4)c3c2)o1` [lapatinib] + CC(=O)c1c(C)c2cnc(Nc3ccc(N4CCNCC4)cn3)nc2n(C2CCCC2)c1=O [palbociclib] (first compound 0.8 µM, partner dose 0.04 µM) was run?
The cell count was 93.4%.

With `CS(=O)(=O)CCNCc1ccc(-c2ccc3ncnc(Nc4ccc(OCc5cccc(F)c5)c(Cl)c4)c3c2)o1` [lapatinib] + COCC[n+]1c2c(n(Cc3cnccn3)c1C)C(=O)c1ccccc1C2=O [YM155] (first compound 0.8 µM, partner dose 0.0004 µM) as the compound, how does the cell count read?
Its cell count is 97.5%.

For `CN1CCN(c2ccc3nc(-c4c(N)c5c(F)cccc5[nH]c4=O)[nH]c3c2)CC1` [Dovitinib] + COCC[n+]1c2c(n(Cc3cnccn3)c1C)C(=O)c1ccccc1C2=O [YM155] (first compound 0.1 µM, partner dose 0.0004 µM), which cell count is on record?
Its cell count is 99.9%.

How did the cell count turn out when `C[C@@H](Oc1cc(-c2cnn(C3CCNCC3)c2)cnc1N)c1c(Cl)ccc(F)c1Cl` [Crizotinib] + CCCS(=O)(=O)Nc1ccc(F)c(C(=O)c2c[nH]c3ncc(Cl)cc23)c1F [PLX4720] (first compound 0.2 µM, partner dose 0.08 µM) was run?
The cell count was 105%.

For `C=CCNC1=C2C[C@@H](C)C[C@H](OC)[C@H](O)[C@@H](C)/C=C(\C)[C@H](OC(N)=O)[C@@H](OC)/C=C\C=C(/C)C(=O)NC(=CC1=O)C2=O` [Tanespimycin] + Cc1nc(Nc2ncc(C(=O)Nc3c(C)cccc3Cl)s2)cc(N2CCN(CCO)CC2)n1 [dasatanib] (first compound 0.002 µM, partner dose 0.004 µM), which cell count is on record?
Its cell count is 83.1%.

`CS(=O)(=O)CCNCc1ccc(-c2ccc3ncnc(Nc4ccc(OCc5cccc(F)c5)c(Cl)c4)c3c2)o1` [lapatinib] + Nc1nc(F)nc2c1ncn2[C@@H]1O[C@H](CO)[C@@H](O)[C@@H]1O [fludarabine] (first compound 0.8 µM, partner dose 0.2 µM) was tested. Which cell count did it give?
The cell count was 100%.

How did the cell count turn out when `C[C@@H](Oc1cc(-c2cnn(C3CCNCC3)c2)cnc1N)c1c(Cl)ccc(F)c1Cl` [Crizotinib] + Nc1cccc2c1CN(C1CCC(=O)NC1=O)C2=O [lenalidomide] (first compound 0.2 µM, partner dose 1 µM) was run?
The cell count was 102%.

For `C[C@@H](Oc1cc(-c2cnn(C3CCNCC3)c2)cnc1N)c1c(Cl)ccc(F)c1Cl` [Crizotinib] + COc1ccc(Cl)c(Nc2nc3ccccc3nc2NS(=O)(=O)c2cccc(NC(=O)C(C)(C)N)c2)c1 [XL147] (first compound 0.2 µM, partner dose 0.8 µM), which cell count is on record?
Its cell count is 105%.

How did the cell count turn out when `CS(=O)(=O)CCNCc1ccc(-c2ccc3ncnc(Nc4ccc(OCc5cccc(F)c5)c(Cl)c4)c3c2)o1` [lapatinib] + CCCS(=O)(=O)Nc1ccc(F)c(C(=O)c2c[nH]c3ncc(Cl)cc23)c1F [PLX4720] (first compound 0.8 µM, partner dose 0.08 µM) was run?
The cell count was 85.5%.
